Data on 57 compounds can be found in paper PMC4336329 (PLoS ONE, 2015).

The whole screen tested about 310,000 compounds, of which about 14,000 (4.5%) showed an effect of 50% or more. The effect is printed as a negative number. This is one part of the list.
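Note: peak tail current of the secondary pulse compared with the same well before compound.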

human ether-à-go-go-related gene (hERG) potassium channel, sequence (Q12809 whole entry, looked up): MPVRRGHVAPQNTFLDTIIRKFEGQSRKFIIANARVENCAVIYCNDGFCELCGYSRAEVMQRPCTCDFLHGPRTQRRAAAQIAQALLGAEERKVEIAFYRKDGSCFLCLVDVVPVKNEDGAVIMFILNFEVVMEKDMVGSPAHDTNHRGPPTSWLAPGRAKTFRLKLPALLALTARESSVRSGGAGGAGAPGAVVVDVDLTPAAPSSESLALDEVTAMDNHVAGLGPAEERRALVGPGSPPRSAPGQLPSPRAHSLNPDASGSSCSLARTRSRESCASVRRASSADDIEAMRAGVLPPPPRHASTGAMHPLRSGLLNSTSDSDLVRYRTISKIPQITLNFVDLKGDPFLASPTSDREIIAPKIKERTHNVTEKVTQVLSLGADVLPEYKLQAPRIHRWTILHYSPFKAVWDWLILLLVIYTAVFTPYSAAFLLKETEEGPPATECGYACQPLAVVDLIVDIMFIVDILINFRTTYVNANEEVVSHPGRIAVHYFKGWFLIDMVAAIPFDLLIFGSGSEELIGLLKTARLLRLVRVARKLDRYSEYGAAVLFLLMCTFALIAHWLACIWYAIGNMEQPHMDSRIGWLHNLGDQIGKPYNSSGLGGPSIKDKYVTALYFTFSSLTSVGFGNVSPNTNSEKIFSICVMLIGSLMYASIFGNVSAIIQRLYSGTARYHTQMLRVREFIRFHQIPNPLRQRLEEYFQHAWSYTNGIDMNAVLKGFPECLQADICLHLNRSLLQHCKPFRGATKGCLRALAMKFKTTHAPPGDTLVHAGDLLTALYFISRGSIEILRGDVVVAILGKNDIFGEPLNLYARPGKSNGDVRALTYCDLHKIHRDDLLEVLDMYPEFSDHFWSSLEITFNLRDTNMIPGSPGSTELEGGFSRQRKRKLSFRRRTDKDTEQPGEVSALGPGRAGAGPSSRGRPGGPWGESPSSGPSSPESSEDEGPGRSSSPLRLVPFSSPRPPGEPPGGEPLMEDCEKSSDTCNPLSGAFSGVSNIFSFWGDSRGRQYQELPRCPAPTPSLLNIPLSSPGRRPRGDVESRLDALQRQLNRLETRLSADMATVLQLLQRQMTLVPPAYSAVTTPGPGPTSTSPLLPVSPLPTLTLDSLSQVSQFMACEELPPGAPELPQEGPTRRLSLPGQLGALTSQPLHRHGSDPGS

The test addresses human ether-à-go-go-related gene (hERG) potassium channel (human, UniProt Q12809). Nature of the test: primary screen, population patch clamp on CHO cells stably expressing hERG.
Take `CN(C)c1nc2c(c(=O)[nH]c(=O)n2C)n1CCOc1ccccc1`: the “hERG current change (%, negative = inhibition) at 10uM” value is recorded as 13.8%.

Consider `O=C(NCc1ccco1)c1cnn2c1NC(c1ccccc1)CC2C(F)(F)F` (stereo not drawn), for which the “hERG current change (%, negative = inhibition) at 10uM” value is -2.23%.

With `O=C(CCNC(=O)c1ccc(Cl)cc1)Nc1ccc(Cl)cc1F`, the “hERG current change (%, negative = inhibition) at 10uM” value worked out at 13.6%.

Regarding `O=C(Cn1c(C(F)(F)F)nc2ccccc21)N1CCCC1`, the “hERG current change (%, negative = inhibition) at 10uM” value is recorded as -2.97%.

`O=C1CCCC2=C1C(c1cccc(O)c1)C1=C(N2)c2ccccc2C1=O` (stereo not drawn): the “hERG current change (%, negative = inhibition) at 10uM” value worked out at 1.67%.

`CCCCCCCCCCCC(=O)NC(C(=O)O)C(O)c1ccccc1` (stereo not drawn): the “hERG current change (%, negative = inhibition) at 10uM” value came to 6.54%.

Turning to `Cc1ccc(-c2nnn(CC(=O)N(CCN3CCOCC3)C(C(=O)NC3CCCC3)c3ccncc3)n2)o1` (stereo not drawn), the “hERG current change (%, negative = inhibition) at 10uM” value was found to be 7.82%.

Turning to `CCOC(=O)c1sc(NC(=O)C(CC)Sc2nccn2C)nc1C` (stereo not drawn), the “hERG current change (%, negative = inhibition) at 10uM” value is listed as 2.94%.

Take `O=C(CSc1nncs1)NC(=O)NCc1ccco1`: the “hERG current change (%, negative = inhibition) at 10uM” value amounted to 20.2%.

`CCOC(=O)C1=C(c2ccccc2)N=C2SCC(=O)N2C1c1ccc(OCC)c(OCC)c1` (stereo not drawn): the “hERG current change (%, negative = inhibition) at 10uM” value was found to be 6.45%.

In the case of `COc1ccccc1C(=O)Nc1ccnn1C1CCN(Cc2cnn(C)c2)CC1`, the “hERG current change (%, negative = inhibition) at 10uM” value was -55.6%.

Regarding `O=C(c1cn(Cc2ccccc2)nc1-c1cccnc1)N1CCN(Cc2ccccc2)CC1`, the “hERG current change (%, negative = inhibition) at 10uM” value is -33.5%.

Regarding `O=C(CN1CCC(NC(=O)c2ccccc2F)CC1)NCc1ccc(F)cc1`, the “hERG current change (%, negative = inhibition) at 10uM” value is -24.6%.

Turning to `CC(=O)NCCc1nc2ccccc2n1CCOc1ccc(C)cc1`, the “hERG current change (%, negative = inhibition) at 10uM” value is on record as -12.9%.

Regarding `COc1ccc(NC(=O)C(NC(=O)c2ccccc2)C(C)C)cc1` (stereo not drawn), the “hERG current change (%, negative = inhibition) at 10uM” value is -7.86%.

On to `CC(NC(=O)COc1ccccc1F)C1CC2CCC1C2` (stereo not drawn), for which the “hERG current change (%, negative = inhibition) at 10uM” value amounted to 18.5%.

Take `O=[N+]([O-])c1cccc(C(O)C23CN4CN(CN(C4)C2)C3)c1` (stereo not drawn): the “hERG current change (%, negative = inhibition) at 10uM” value was -1.53%.

Regarding `COc1ccc(C(C)=O)cc1COC(=O)Cc1n[nH]c(=O)c2ccccc12`, the “hERG current change (%, negative = inhibition) at 10uM” value is -20.8%.

For `Cc1ccccc1CC(=O)N1CCN(S(=O)(=O)c2cccs2)CC1`, the “hERG current change (%, negative = inhibition) at 10uM” value is -9.48%.

Regarding `COc1ccc(CN(C(=O)c2snc(C(N)=O)c2N)C(C)C(=O)NCc2ccc(F)cc2)cc1` (stereo not drawn), the “hERG current change (%, negative = inhibition) at 10uM” value was -15.1%.

Turning to `COc1ccc(NS(=O)(=O)c2ccc(N3C(=O)CCC3=O)cc2)cc1`, the “hERG current change (%, negative = inhibition) at 10uM” value worked out at 7.07%.

With `CCN1CCN(c2nc(-c3ccccc3)nc3ccccc23)CC1`, the “hERG current change (%, negative = inhibition) at 10uM” value was -63%.

For `CCCN(CCC)CCNC(=O)c1cc2c(=O)n(CC)c3ccccc3c2s1`, the “hERG current change (%, negative = inhibition) at 10uM” value is -17.3%.

As to `CCOC(=O)C1CCN(C(=O)Cc2c(C(=O)O)[nH]c3ccccc23)CC1`, the “hERG current change (%, negative = inhibition) at 10uM” value is 4.19%.

As for `C=CCc1ccc(OCCOCCOc2cccc3cccnc23)c(OC)c1`, the “hERG current change (%, negative = inhibition) at 10uM” value is recorded as -29.3%.

As for `Cc1ccn(C(CC(=O)c2ccc(Br)cc2)C(=O)O)n1` (stereo not drawn), the “hERG current change (%, negative = inhibition) at 10uM” value is given as 1.89%.

Regarding `Cc1c(NS(=O)(=O)c2cccs2)c(=O)n(-c2ccccc2)n1C`, the “hERG current change (%, negative = inhibition) at 10uM” value is listed as -7.5%.

Regarding `COc1ccccc1N1C(=O)CC(Sc2ncccc2C(=O)O)C1=O` (stereo not drawn), the “hERG current change (%, negative = inhibition) at 10uM” value worked out at 5.48%.

Turning to `Cc1ccc(NC(=O)c2cc(S(=O)(=O)N3CCCCC3)c[nH]2)cc1C`, the “hERG current change (%, negative = inhibition) at 10uM” value is recorded as 9.77%.

In the case of `O=C(OCCC1Oc2cccnc2NC1=O)c1ccc([N+](=O)[O-])cc1` (stereo not drawn), the “hERG current change (%, negative = inhibition) at 10uM” value is recorded as 6.29%.

For the compound `CCOc1ccc(CCNC(=O)c2cnccn2)cc1OCC`, the “hERG current change (%, negative = inhibition) at 10uM” value was determined as 11.1%.

Turning to `CN(NS(=O)(=O)c1cccs1)c1ncc(C(F)(F)F)cc1Cl`, the “hERG current change (%, negative = inhibition) at 10uM” value stood at 8.25%.

As to `NNc1nc2cc3c(cc2s1)OCCO3`, the “hERG current change (%, negative = inhibition) at 10uM” value came to 14.1%.

With `CN(Cc1ccccc1)S(=O)(=O)c1ccc(Cl)nc1`, the “hERG current change (%, negative = inhibition) at 10uM” value is -10.5%.

`O=C(CN1C(=O)COc2ccccc21)NCC1CCCO1` (stereo not drawn): the “hERG current change (%, negative = inhibition) at 10uM” value is on record as -14.4%.

Turning to `O=C(NCCc1ccc(F)cc1)C(=O)NCC1CCCN1S(=O)(=O)c1cccs1` (stereo not drawn), the “hERG current change (%, negative = inhibition) at 10uM” value is -57.6%.

Consider `CCCCN(C)C(=O)c1cn(-c2cccc(OC)c2)c(=O)c2ccccc12`, for which the “hERG current change (%, negative = inhibition) at 10uM” value is listed as -20.9%.

For `O=C(NC(=O)c1ccccc1)NC1(C(F)(F)F)OCCO1`, the “hERG current change (%, negative = inhibition) at 10uM” value is 2.65%.

On to `CCOC(=O)N1CCN(CC(=O)N2c3ccccc3CC2C)CC1.O=C(O)C(=O)O` (stereo not drawn), for which the “hERG current change (%, negative = inhibition) at 10uM” value is reported as 10.4%.

Regarding `NC(=O)c1ccc(N2CCN(c3ccccc3F)CC2)c([N+](=O)[O-])c1`, the “hERG current change (%, negative = inhibition) at 10uM” value is listed as -25.5%.

Consider `COC(=O)C1=C(C)Nc2c(c(=O)n(C)c(=O)n2C)C1c1ccc(Cl)cc1` (stereo not drawn), for which the “hERG current change (%, negative = inhibition) at 10uM” value was -4.27%.

Consider `Cc1ccc(C2NC(c3ccc(C)cc3)C(C)C(=O)C2C)cc1` (stereo not drawn), for which the “hERG current change (%, negative = inhibition) at 10uM” value is -7.77%.

Take `Cc1ccc2nc(SCC(=O)Nc3ccc(C)c(Cl)c3)nc(=O)n2c1`: the “hERG current change (%, negative = inhibition) at 10uM” value was -12.8%.

As for `COc1cccc2cc(-c3csc(NC(=O)CCC(=O)NCCCN4CCC(C)CC4)n3)c(=O)oc12`, the “hERG current change (%, negative = inhibition) at 10uM” value was -51.9%.

Regarding `O=C(NNC(=O)c1ccc(Br)s1)NC1CCCCC1`, the “hERG current change (%, negative = inhibition) at 10uM” value is given as 28.1%.

For the compound `CC(=O)Nc1c(C)ccc(CNC(=O)COc2cc(C)ccc2C)c1C`, the “hERG current change (%, negative = inhibition) at 10uM” value was -0.074%.

Take `CCOC(=O)Cn1nc(C)c2c1CCCC2=O`: the “hERG current change (%, negative = inhibition) at 10uM” value is listed as 1.49%.

`COc1cc(OC)cc(C(=O)NCC(=O)OCc2nc3ccccc3s2)c1`: the “hERG current change (%, negative = inhibition) at 10uM” value was 3.5%.

Take `CCOc1cc(C2C(C#N)=C(N)Oc3n[nH]c(CC)c32)ccc1OCCN1CCOCC1` (stereo not drawn): the “hERG current change (%, negative = inhibition) at 10uM” value is given as 2.02%.

As for `CCOC(=O)c1c(C)c[nH]c1C`, the “hERG current change (%, negative = inhibition) at 10uM” value turned out to be 11.5%.

In the case of `COc1ccc2c(c1)C(=O)N(c1ccc(C)cc1C)C(=O)C2`, the “hERG current change (%, negative = inhibition) at 10uM” value was 7.6%.

With `CCOC(=O)C1=C(COC(=O)Cc2ccc(OC)c(OC)c2)NC(=O)NC1C` (stereo not drawn), the “hERG current change (%, negative = inhibition) at 10uM” value was -2.96%.

For `Brc1ccc(CNc2ccc3ncccc3c2)cc1`, the “hERG current change (%, negative = inhibition) at 10uM” value is 14.8%.

In the case of `COc1ccc(OC)c(NC(=O)c2cccc(NC(=O)c3ccccc3C(=O)O)c2)c1`, the “hERG current change (%, negative = inhibition) at 10uM” value is reported as 17.5%.

Regarding `CSc1nsc2nc(=O)c(/C=C3\C=Nc4ccccc43)c(N)n12`, the “hERG current change (%, negative = inhibition) at 10uM” value is on record as 18.4%.

For `COc1ccc(NC(=O)CN2C(=O)C(C)SC(C)C2=O)c(OC)c1` (stereo not drawn), the “hERG current change (%, negative = inhibition) at 10uM” value is 18.5%.

Take `Cc1ccc(C2NS(=O)(=O)N=C2N)cc1` (stereo not drawn): the “hERG current change (%, negative = inhibition) at 10uM” value is recorded as -2.13%.
